# Test results as given in PubChem BioAssay AID1768 (National Center for Advancing Translational Sciences (NCATS), 2009).
# Several values for one entry are separate records, joined by “and”; a condition that tells them apart may be missing. Equal values may be shown once. Out of some 270,000 compounds screened, about 620 (0.23%) were called active. Inconclusive results, whose numbers are uncertain, are shown with a selection of clear calls. Calls come from the whole dose curve; as a rule, active = well fitted inhibition curve with a large enough effect in the polarisation, with a control signal flat (not every such curve was filed as active); inconclusive = small, poorly fitted or top-dose-only effect, or effect the other way, or a change in a side signal; inactive = no such curve, though single readings can be large or run the other way; the % refers to the polarisation. A potency beside an inconclusive call is a rough fit, not a confirmed value. A note “side channel” means that the fit belongs to a control or component signal, not to the main read-out.
# Target: Menin (Homo sapiens) (UniProt O00255)
# Chain of UniProt O00255 (O00255 whole entry, looked up): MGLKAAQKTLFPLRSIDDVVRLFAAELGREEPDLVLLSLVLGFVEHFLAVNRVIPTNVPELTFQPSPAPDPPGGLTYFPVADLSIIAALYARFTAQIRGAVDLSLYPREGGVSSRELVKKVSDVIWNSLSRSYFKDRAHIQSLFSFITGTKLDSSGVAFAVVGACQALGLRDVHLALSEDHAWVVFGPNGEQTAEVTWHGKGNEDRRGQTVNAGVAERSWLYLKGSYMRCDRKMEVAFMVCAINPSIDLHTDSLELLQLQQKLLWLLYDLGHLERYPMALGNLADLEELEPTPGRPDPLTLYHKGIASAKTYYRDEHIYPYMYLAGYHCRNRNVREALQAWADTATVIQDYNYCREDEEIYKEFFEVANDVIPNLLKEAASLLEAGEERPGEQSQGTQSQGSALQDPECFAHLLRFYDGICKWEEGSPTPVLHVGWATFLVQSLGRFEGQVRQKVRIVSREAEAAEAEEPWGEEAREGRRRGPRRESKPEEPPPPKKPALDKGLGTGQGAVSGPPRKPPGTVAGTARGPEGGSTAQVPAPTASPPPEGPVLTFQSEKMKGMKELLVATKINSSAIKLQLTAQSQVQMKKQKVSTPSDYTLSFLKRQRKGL
# Assay: qHTS Assay for Inhibitors Targeting the Menin-MLL Interaction in MLL Related Leukemias: Competition With Texas Red Labeled MLL-derived Mutant Peptide
# Settings: fluorescence polarization; series mostly up to 61.6 µM
# Potency is the fitted concentration of half-maximal effect; tags give direction and shape of the fitted curve or compound fluorescence and quenching.
row,SMILES,Potency
1,Cc1cccc(Nc2ccc3nonc3c2[N+](=O)[O-])c1C,"inconclusive: 28.2 µM [quencher, side channel, single point]"
2,Cc1ccc(Nc2c(-c3ccccc3O)nc3cnccn23)cc1,"inconclusive: 15.8 µM [quencher, side channel, partial curve]"
3,C=CCn1c(NCc2ccc(OC)cc2O)nc2ccccc21,"inconclusive: 15.8 µM [quencher, side channel, partial curve]"
4,COC(=O)C1=C(C)Nc2ncnn2C1c1ccc(OC(=O)c2ccccc2)cc1 (stereo not given),"inconclusive: 28.2 µM [fluorescent, single point]"
5,COc1ccc(OC)c(Nc2nc(-c3cccs3)cs2)c1,"inconclusive: 10 µM [quencher, side channel, partial curve]"
6,O=C(COc1c(Br)cc(Br)c2cccnc12)Nc1ccccc1F,"inconclusive: 20 µM [quencher, side channel, partial curve]"
7,O=C1NC(=S)N/C1=C/c1cc2c(cc1[N+](=O)[O-])OCO2,"inconclusive: 28.2 µM [quencher, side channel, single point]"
8,Oc1[nH]c2ccccc2c1N=Nc1c(F)c(F)c(C(F)(F)F)c(F)c1F,"inconclusive: 39.8 µM [inhibitor, single point]"
9,CCN1/C(=C/C(C)=C/c2sc3ccccc3[n+]2CC)Sc2ccccc21,"inconclusive: 3.16 µM [fluorescent, side channel, full curve]"
10,CC1CCC(C(C)C)C(OC(=O)C[n+]2cc(-c3ccc(Cl)cc3)n3c2CCCCC3)C1 (stereo not given),"inconclusive: 25.1 µM [inhibitor, partial curve]"
11,O=C1CC(c2ccc(Cl)cc2)c2c(O)cc(O)cc2O1 (stereo not given),"inconclusive: 28.2 µM [quencher, side channel, single point]"
12,NC(=O)N/N=C/c1c(F)c(F)c(F)c(F)c1F,"inconclusive: 25.1 µM [inhibitor, partial curve]"
13,O=C(OCc1cc(=O)n2c(n1)sc1ccccc12)c1cccc(O)c1,"inconclusive: 39.8 µM [quencher, side channel, single point]"
14,CCN(CC)C(CNS(=O)(=O)c1ccc(Cl)cc1)c1ccccc1 (stereo not given),"inconclusive: 25.1 µM [fluorescent, side channel, single point]"
15,Clc1ccccc1C1SCC2Nc3ccccc3CN21 (stereo not given),"inconclusive: 28.2 µM [quencher, side channel, single point]"
16,COc1ccc(-c2csc(CCN3N=C(C)CC3=O)n2)cc1,"inconclusive: 39.8 µM [quencher, side channel, single point]"
17,N#CC1=C(S)N(c2ccccc2)C(c2cccs2)NC1=O (stereo not given),"inconclusive: 31.6 µM [quencher, side channel, single point]"
18,CC(C)(C)c1ccc(C(O)CCCN2CCC(C(O)(c3ccccc3)c3ccccc3)CC2)cc1 (stereo not given),"inconclusive: 1.26 µM [fluorescent, side channel, full curve] and inconclusive: 3.16 µM [fluorescent, side channel, partial curve]"

row,SMILES,Potency
1,C/C(=N/NC(=O)c1nnn(-c2nonc2N)c1COc1ccccc1)c1ccccc1Cl,"inconclusive: 11.2 µM [quencher, side channel, partial curve]"
2,COc1ccc(C(O)(C2CCCCC2)C(CN2CCCC2)c2ccccc2)cc1 (stereo not given),"inconclusive: 10 µM [fluorescent, side channel, partial curve]"
3,Cc1ccc(S(=O)(=O)N2CCN(CC(=O)NC3CCCc4ccccc43)CC2)c(C)c1 (stereo not given),"inconclusive: 11.2 µM [fluorescent, side channel, partial curve]"
4,O=C(CCl)N(CCc1ccccc1)CCc1ccccc1,"inconclusive: 3.55 µM [fluorescent, side channel, partial curve]"
5,COc1cc(/C=C2\SC(=O)N(c3ccc(Cl)cc3)C2=O)cc([N+](=O)[O-])c1O,"inconclusive: 11.2 µM [quencher, side channel, partial curve]"
6,COc1ccc(NC(=S)Nc2ccc(Oc3ccccc3)cc2)cc1,"inconclusive: 39.8 µM [inhibitor, partial curve, poor fit]"
7,CC(=O)N1CCC2(CC1)C/C(=N\NC(=S)Nc1ccc(C)cc1)c1cc(O)ccc1O2,"inconclusive: 39.8 µM [quencher, side channel, single point]"
8,CC(C)CC(=O)NC(NC(=S)Nc1sc2c(c1C#N)CCCC2)C(Cl)(Cl)Cl (stereo not given),"inconclusive: 11.2 µM [quencher, side channel, partial curve]"
9,O=C(N/N=C/c1nn(-c2ccccc2)cc1-c1ccccc1)c1ccncc1,"inconclusive: 39.8 µM [quencher, side channel, single point]"
10,Cc1cc2oc(=O)cc(CN3CCN(Cc4ccccc4)CC3)c2cc1Cl,inactive
11,CCN(CCCCOC(=O)c1ccc(OC)c(OC)c1)[C@@H](C)Cc1ccc(OC)cc1,inactive
12,COc1ccc(-c2cc(C(=O)Nc3c(Cl)cc(Cl)cc3Cl)c3ccccc3n2)cc1OC,inactive
13,Cc1ccc2nc(NC3=NCN(Cc4cccnc4)CN3)nc(C)c2c1,"inconclusive: 11.2 µM [inhibitor, single point]"
14,CC[C@H](C)[C@H](NC(=O)[C@H](Cc1ccc(O)cc1)NC(=O)[C@@H]1CCCN1C(=O)[C@H](CCCCN)NC(=O)[C@@H](N)CCCCN)C(=O)N[C@@H](CC(C)C)C(=O)O,inactive
15,O=C(c1ccc(F)cc1F)N1CCCC(c2nc(-c3ccc(F)cc3)no2)C1 (stereo not given),"inconclusive: 12.6 µM [fluorescent, side channel, partial curve]"
16,Fc1cccc(NCc2cn3ccccc3n2)c1,"inconclusive: 44.7 µM [inhibitor, partial curve, poor fit]"
17,CCOc1cc(C(=O)Nc2ccc3c(c2)OCO3)ccc1OC(F)F,"inconclusive: 8.91 µM [quencher, side channel, full curve]"
